Article PMC9911399, “Two distinct binding modes provide the RNA-binding protein RbFox with extraordinary sequence specificity”
Numbering of substitutions follows the chain as printed; changes in the protein carry UniProt numbers. Some of the results follow.

B1: GAUGUAG (DNA:RNA)
RNA: GGGAGACCGGAAUUCAGAUUGUCCGAUGUAGUUAAAUCCCGUCGUAGCCACCA
DNA 1: CAATCTGAATTCCGGTCTCCC
DNA 2: TGGTGGCTACGACGGGATT
B2: UGGGACU (DNA:RNA)
RNA: B1 RNA with G25U, A26G, U27G, U29A, A30C, G31U
DNA 1: CAATCTGAATTCCGGTCTCCC
DNA 2: TGGTGGCTACGACGGGATT
B3: UAUAAAC (DNA:RNA)
RNA: B1 RNA with G25U, G28A, U29A, G31C
DNA 1: CAATCTGAATTCCGGTCTCCC
DNA 2: TGGTGGCTACGACGGGATT
B4: AUCGCUA (DNA:RNA)
RNA: B1 RNA with G25A, A26U, U27C, U29C, A30U, G31A
DNA 1: CAATCTGAATTCCGGTCTCCC
DNA 2: TGGTGGCTACGACGGGATT
B5: CCUGUCC (DNA:RNA)
RNA: B1 RNA with G25C, A26C, A30C, G31C
DNA 1: CAATCTGAATTCCGGTCTCCC
DNA 2: TGGTGGCTACGACGGGATT
B6: UAGUAAC (DNA:RNA)
RNA: B1 RNA with G25U, U27G, G28U, U29A, G31C
DNA 1: CAATCTGAATTCCGGTCTCCC
DNA 2: TGGTGGCTACGACGGGATT
B7: AAGACGA (DNA:RNA)
RNA: B1 RNA with G25A, U27G, G28A, U29C, A30G, G31A
DNA 1: CAATCTGAATTCCGGTCTCCC
DNA 2: TGGTGGCTACGACGGGATT
B8: GUUAAUA (DNA:RNA)
RNA: B1 RNA with A26U, G28A, U29A, A30U, G31A
DNA 1: CAATCTGAATTCCGGTCTCCC
DNA 2: TGGTGGCTACGACGGGATT
B9: AUACCCG (DNA:RNA)
RNA: B1 RNA with G25A, A26U, U27A, G28C, U29C, A30C
DNA 1: CAATCTGAATTCCGGTCTCCC
DNA 2: TGGTGGCTACGACGGGATT
B10: GUGCGCU (DNA:RNA)
RNA: B1 RNA with A26U, U27G, G28C, U29G, A30C, G31U
DNA 1: CAATCTGAATTCCGGTCTCCC
DNA 2: TGGTGGCTACGACGGGATT
B11: ACCACGG (DNA:RNA)
RNA: B1 RNA with G25A, A26C, U27C, G28A, U29C, A30G
DNA 1: CAATCTGAATTCCGGTCTCCC
DNA 2: TGGTGGCTACGACGGGATT
B12: AGUGAUG (DNA:RNA)
RNA: B1 RNA with G25A, A26G, U29A, A30U
DNA 1: CAATCTGAATTCCGGTCTCCC
DNA 2: TGGTGGCTACGACGGGATT
B13: GGGAAAU (DNA:RNA)
RNA: B1 RNA with A26G, U27G, G28A, U29A, G31U
DNA 1: CAATCTGAATTCCGGTCTCCC
DNA 2: TGGTGGCTACGACGGGATT
B14: GGCAGUG (DNA:RNA)
RNA: B1 RNA with A26G, U27C, G28A, U29G, A30U
DNA 1: CAATCTGAATTCCGGTCTCCC
DNA 2: TGGTGGCTACGACGGGATT
B15: GUCUCCA (DNA:RNA)
RNA: B1 RNA with A26U, U27C, G28U, U29C, A30C, G31A
DNA 1: CAATCTGAATTCCGGTCTCCC
DNA 2: TGGTGGCTACGACGGGATT
B16: ACUCAGA (DNA:RNA)
RNA: B1 RNA with G25A, A26C, G28C, U29A, A30G, G31A
DNA 1: CAATCTGAATTCCGGTCTCCC
DNA 2: TGGTGGCTACGACGGGATT
B17: UUGUAGU (DNA:RNA)
RNA: GGGAGACCGGAAUUCAGAUUGUCCUUGUAGUUUAAAUCCCGUCGUAGCCACCA
DNA 1: CAATCTGAATTCCGGTCTCCC
DNA 2: TGGTGGCTACGACGGGATT
B18: ACGCAAA (DNA:RNA)
RNA: B17 RNA with U25A, U26C, U28C, G30A, U31A
DNA 1: CAATCTGAATTCCGGTCTCCC
DNA 2: TGGTGGCTACGACGGGATT
B19: CACAAAG (DNA:RNA)
RNA: B1 RNA with G25C, U27C, G28A, U29A
DNA 1: CAATCTGAATTCCGGTCTCCC
DNA 2: TGGTGGCTACGACGGGATT
B20: CGUCGAC (DNA:RNA)
RNA: B1 RNA with G25C, A26G, G28C, U29G, G31C
DNA 1: CAATCTGAATTCCGGTCTCCC
DNA 2: TGGTGGCTACGACGGGATT
B21: AUGAUCC (DNA:RNA)
RNA: B17 RNA with U25A, U28A, A29U, G30C, U31C
DNA 1: CAATCTGAATTCCGGTCTCCC
DNA 2: TGGTGGCTACGACGGGATT
B22: CAGGGUU (DNA:RNA)
RNA: B1 RNA with G25C, U27G, U29G, A30U, G31U
DNA 1: CAATCTGAATTCCGGTCTCCC
DNA 2: TGGTGGCTACGACGGGATT
B23: UACAAAA (DNA:RNA)
RNA: B1 RNA with G25U, U27C, G28A, U29A, G31A
DNA 1: CAATCTGAATTCCGGTCTCCC
DNA 2: TGGTGGCTACGACGGGATT
B24: AAUUGUG (DNA:RNA)
RNA: B1 RNA with G25A, G28U, U29G, A30U
DNA 1: CAATCTGAATTCCGGTCTCCC
DNA 2: TGGTGGCTACGACGGGATT
B25: UCGCUAC (DNA:RNA)
RNA: B1 RNA with G25U, A26C, U27G, G28C, G31C
DNA 1: CAATCTGAATTCCGGTCTCCC
DNA 2: TGGTGGCTACGACGGGATT
B26: UAGCAAA (DNA:RNA)
RNA: B17 RNA with U26A, U28C, G30A, U31A
DNA 1: CAATCTGAATTCCGGTCTCCC
DNA 2: TGGTGGCTACGACGGGATT
B27: GCAGAGG (DNA:RNA)
RNA: B1 RNA with A26C, U27A, U29A, A30G
DNA 1: CAATCTGAATTCCGGTCTCCC
DNA 2: TGGTGGCTACGACGGGATT
B28: UGGUGUA (DNA:RNA)
RNA: B17 RNA with U26G, A29G, G30U, U31A
DNA 1: CAATCTGAATTCCGGTCTCCC
DNA 2: TGGTGGCTACGACGGGATT
B29: GCUAACG (DNA:RNA)
RNA: B1 RNA with A26C, G28A, U29A, A30C
DNA 1: CAATCTGAATTCCGGTCTCCC
DNA 2: TGGTGGCTACGACGGGATT
B30: UGCCACA (DNA:RNA)
RNA: B17 RNA with U26G, G27C, U28C, G30C, U31A
DNA 1: CAATCTGAATTCCGGTCTCCC
DNA 2: TGGTGGCTACGACGGGATT
B31: UGAUGGG (DNA:RNA)
RNA: B17 RNA with U26G, G27A, A29G, U31G
DNA 1: CAATCTGAATTCCGGTCTCCC
DNA 2: TGGTGGCTACGACGGGATT

Target: T1, RBFOX1 RRM RbFoxmut (Fox-RRM*) (Homo sapiens, UniProt Q9NWB1 109-208, R118D;E147R;N151S;E152T)
T1 sequence: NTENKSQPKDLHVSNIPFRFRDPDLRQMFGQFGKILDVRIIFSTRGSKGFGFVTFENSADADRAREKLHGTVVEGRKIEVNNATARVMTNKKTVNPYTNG
Test: EMSA; HiTS-Eq, 1 nM pool, 10 min; buffer printed only for the single-RNA assays: 10 mM Tris pH 7.5, 150 mM NaCl, 3.4 mM EDTA, 0.001% NP-40, 30 C
Settings: tags: His6 N-terminal (pET28a); label: 5' 32P
Method in brief: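 These values rest on relative association constants, computed from read-count changes of each RNA species versus the control reaction and normalised to the cognate motif. Reads came from free RNA recovered by 8% native PAGE after purified RbFox RRM (wild type or mutant) at increasing concentrations was equilibrated for 10 min in 50 µL with 1 nM of a 5′-radiolabelled pool with 7 randomized nucleotides and DNA-annealed flanks.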

Row | Binder | binding signal
1 | B1 | 0.115 KA relative to UGCAUGU
2 | B2 | 0.078 KA relative to UGCAUGU
3 | B3 | 0.0544 KA relative to UGCAUGU
4 | B4 | 0.113 KA relative to UGCAUGU
5 | B5 | 0.074 KA relative to UGCAUGU
6 | B6 | 0.0875 KA relative to UGCAUGU
7 | B7 | 0.0676 KA relative to UGCAUGU
8 | B8 | 0.124 KA relative to UGCAUGU
9 | B9 | 0.0997 KA relative to UGCAUGU
10 | B10 | 0.12 KA relative to UGCAUGU
11 | B11 | 0.0844 KA relative to UGCAUGU
12 | B12 | 0.237 KA relative to UGCAUGU
13 | B13 | 0.0668 KA relative to UGCAUGU
14 | B14 | 0.14 KA relative to UGCAUGU
15 | B15 | 0.104 KA relative to UGCAUGU
16 | B16 | 0.12 KA relative to UGCAUGU

Row | Binder | binding signal
17 | B17 | 0.184 KA relative to UGCAUGU
18 | B18 | 0.0919 KA relative to UGCAUGU
19 | B19 | 0.117 KA relative to UGCAUGU
20 | B20 | 0.104 KA relative to UGCAUGU
21 | B21 | 0.0807 KA relative to UGCAUGU
22 | B22 | 0.106 KA relative to UGCAUGU
23 | B23 | 0.0766 KA relative to UGCAUGU
24 | B24 | 0.159 KA relative to UGCAUGU
25 | B25 | 0.112 KA relative to UGCAUGU
26 | B26 | 0.0898 KA relative to UGCAUGU
27 | B27 | 0.0828 KA relative to UGCAUGU
28 | B28 | 0.268 KA relative to UGCAUGU
29 | B29 | 0.12 KA relative to UGCAUGU
30 | B30 | 0.0833 KA relative to UGCAUGU
31 | B31 | 0.0449 KA relative to UGCAUGU
